Hit rate of the full screen: of about 280,000 compounds, about 1,100 (0.39%) were called active. This list was built around the results that the source calls inconclusive (neither active nor inactive); the mix of calls is not that of the screen. Calls follow the shape of the dose curve; as a rule, active = well fitted inhibition curve with a large enough effect; inconclusive = small, poorly fitted or top-dose-only effect, or effect the other way; inactive = flat fitted curve, though single readings scatter. A potency beside an inconclusive call is a rough fit, not a confirmed value.
Target: Microtubule-associated protein tau (Homo sapiens) (UniProt P10636)
Sequence of UniProt P10636 (P10636 whole entry, looked up): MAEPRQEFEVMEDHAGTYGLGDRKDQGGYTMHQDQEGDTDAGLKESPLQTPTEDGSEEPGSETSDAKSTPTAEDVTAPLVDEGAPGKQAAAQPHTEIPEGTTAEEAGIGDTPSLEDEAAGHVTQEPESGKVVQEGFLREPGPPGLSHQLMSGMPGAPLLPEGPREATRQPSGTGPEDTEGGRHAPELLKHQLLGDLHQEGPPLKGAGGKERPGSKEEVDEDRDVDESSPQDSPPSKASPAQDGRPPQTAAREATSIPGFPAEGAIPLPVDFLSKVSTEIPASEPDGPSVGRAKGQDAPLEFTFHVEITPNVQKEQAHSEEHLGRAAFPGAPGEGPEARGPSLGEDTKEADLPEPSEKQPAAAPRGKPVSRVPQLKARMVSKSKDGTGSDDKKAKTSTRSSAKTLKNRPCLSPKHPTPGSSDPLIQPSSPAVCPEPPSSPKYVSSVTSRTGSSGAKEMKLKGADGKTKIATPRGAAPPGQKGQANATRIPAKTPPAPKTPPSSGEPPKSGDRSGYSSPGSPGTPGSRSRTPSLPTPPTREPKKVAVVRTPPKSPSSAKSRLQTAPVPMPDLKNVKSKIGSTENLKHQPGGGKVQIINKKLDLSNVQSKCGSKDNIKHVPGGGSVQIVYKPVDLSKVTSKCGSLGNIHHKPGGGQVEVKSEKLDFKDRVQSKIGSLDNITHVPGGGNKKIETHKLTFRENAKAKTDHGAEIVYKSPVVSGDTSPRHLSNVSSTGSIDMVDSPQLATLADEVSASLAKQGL
Assay: qHTS for Inhibitors of Tau Fibril Formation, Fluorescence Polarization; also: nearly all actives have a fitted effect of over 55% in size
Details: K18 P301L tau heparin fibrillization, Alexa594 FP, 6 h; series mostly up to 57.7 µM
How it was run: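 Compound effects on tau fibrillization are measured by Alexa 594 fluorescence polarization (ex 555, em 632 nm). K18 P301L tau is used at 15 uM with 0.24 uM labeled tracer, and 20 uM heparin induces aggregation over 6 hr at 37 C.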
Potency is read from the fitted curve at half-maximal effect; tags tell the direction and shape of the fitted curve.

Potency, inactive:
CCCN1C(=S)SC(C)(C)C1/[N+]([O-])=C/c1ccc(S(=O)(=O)NC)cc1 (stereo not drawn), COc1cccc(CNC(=O)Cn2c(=O)cc(C(F)(F)F)c3c(C)nn(C)c32)c1OC, CCCCC1(CCCC)NC(=S)N(Nc2ccc(C)cc2)C1=O, COc1ccc(-c2nc3ccccc3[nH]2)cc1, O=C(O)CSc1ccc2ccccc2n1, CC(C)c1nn2c(=O)cc(COC(=O)c3cccc(NC(=O)c4ccccc4F)c3)nc2s1, CC(=O)Oc1ccc2c(=O)c(Oc3ccccc3)coc2c1OC(C)=O, Cc1c(C(=O)N2CCCCCC2)c(S(=O)(=O)Nc2ccc(OC(F)(F)F)cc2)c(C)n1C, OCCN(CCO)c1ccc(C(c2ccc(Cl)cc2)c2ccc(N(CCO)CCO)cc2Cl)c(Cl)c1, CC(Oc1ccccc1)C(=O)Nc1nnc(S(=O)(=O)N2CCCCCC2)s1 (stereo not drawn), C=C1c2ccccc2O[C@H](C(=O)OCC)[C@@H]1CCC(C)C (tested in a mixture with another compound), CCCN1CCCc2cc(CN)ccc21

Potency, inconclusive:
COc1ccc(-c2[nH]ncc2/C=C(/C#N)C(=O)NC2CCCCC2)cc1 35.5 µM [inhibitor, partial curve], Cc1ccccc1OCCOc1cccc(/C=N/NC(=O)Cc2nnc(N)s2)c1 28.2 µM [inhibitor, partial curve, poor fit], S=C(NCc1ccc2c(c1)OCO2)Nc1ccc(-c2nc3ccccc3[nH]2)cc1 25.1 µM [inhibitor, single point], COc1ccc(N2C(=O)C(CC(=O)Nc3ccc(Cl)cc3)N(Cc3ccc4c(c3)OCO4)C2=O)cc1 (stereo not drawn) 15.8 µM [inhibitor, partial curve], Cc1ccccc1/[N+]([O-])=C/c1ccncc1 39.8 µM [inhibitor, single point], Cc1cc(=O)[nH]c(SCC(=O)NC2CCCc3ccccc32)n1 (stereo not drawn) 8.91 µM [activator, single point], CCOc1cc(/C=C2/SC(=S)NC2=O)ccc1OC(=O)c1ccco1 1.12 µM [activator, full curve, poor fit], Cc1ccc(S(=O)(=O)c2cn(CC(=O)Nc3ccccc3)c3ccc(F)cc3c2=O)cc1 25.1 µM [inhibitor, single point], CCN(CC)S(=O)(=O)c1ccc(Nc2ccc(-c3ccc4c(c3)OCCO4)nn2)cc1 11.2 µM [inhibitor, partial curve, poor fit], CCc1ccccc1NC(=O)CN(C)C(=O)CSc1nc2cc(Cl)ccc2s1 20 µM [inhibitor, partial curve], O=C(CSc1nnc(-c2cc(-c3cccs3)nc3ccccc23)o1)NC1CCCCC1 3.55 µM [inhibitor, full curve], Cc1nc2ccccc2n1CC(O)Cn1c2ccccc2c2ccccc21 (stereo not drawn) 39.8 µM [inhibitor, single point], c1ccc2c(c1)Nc1cc3ccccc3cc1S2 8.91 µM [inhibitor, partial curve, poor fit], Oc1cccc(/C=N/N(Cc2ccccc2)c2ccccc2)c1 39.8 µM [inhibitor, single point], O=C(Nc1cccc(Cl)c1)C(Cc1ccccc1)n1cccc1 (stereo not drawn) 17.8 µM [inhibitor, partial curve, poor fit], O=C(Nc1ccccc1)c1cc2ccc3ccccc3c2s1 10 µM [inhibitor, partial curve], O=C(CCC(=O)OCc1cccc(C(=O)Oc2ccccc2)c1)Nc1cccc2ccccc12 3.98 µM [inhibitor, full curve, poor fit], CNc1ncc(C(=O)c2ccc(-c3ccccc3)cc2)s1 3.98 µM [activator, single point], COc1cc(CNCc2cccs2)ccc1OCC(N)=O 5.01 µM [inhibitor, single point], CN(C)c1ccc(C(=O)N/N=C/c2cc(Br)cc(Br)c2O)cc1 1.78 µM [activator, full curve], S=C(NCc1ccc2c(c1)OCO2)Nc1ccc2nsnc2c1 39.8 µM [inhibitor, single point], CCOC(=O)c1ccc(NC(=O)CSc2cc(-c3ccccc3)nc(C)n2)cc1 2.82 µM [inhibitor, full curve], Cc1cc(C(=O)COC(=O)c2ccc(N)c([N+](=O)[O-])c2)c(C)n1Cc1ccc2c(c1)OCO2 20 µM [inhibitor, partial curve, poor fit], COc1cc2c(cc1NC(=O)CSc1nnnn1-c1ccccc1)oc1ccccc12 35.5 µM [inhibitor, single point], COc1ccccc1-c1c(C#N)c(N)nc2c1CCc1ccccc1-2 0.199 µM [activator, full curve, poor fit], C=C(C(C)=O)C(O)/C=C/c1ccco1 (stereo not drawn) 22.4 µM [inhibitor, partial curve], Fc1ccccc1CNC(=S)Nc1cccc(C(F)(F)F)c1 10 µM [inhibitor, partial curve, poor fit], O=c1c2ccccc2nc2n1C(CBr)CS2 (stereo not drawn) 39.8 µM [inhibitor, single point], Cc1c(-c2nc(N)nc(Nc3ccc(F)cc3)n2)oc2ccccc12 28.2 µM [inhibitor, partial curve], O=C(Nc1cc(C(F)(F)F)ccc1Cl)c1ccc2c(c1)CCN2S(=O)(=O)c1ccccc1 20 µM [inhibitor, partial curve], Cc1cc(NC(=O)CSc2nnc(-c3ccncc3)n2N)ccc1Br 17.8 µM [inhibitor, partial curve, poor fit]
